Laboratory results from PubChem BioAssay AID2675 (National Center for Advancing Translational Sciences (NCATS), 2010).
The whole screen tested about 280,000 compounds, of which about 100 (0.036%) were called active. Inconclusive results, whose numbers are uncertain, are shown with a selection of clear calls. The call rests on the fitted dose curve; in most records, active means well fitted inhibition curve with a large enough effect in the signal ratio, with a control signal flat (not every such curve was filed as active); inconclusive means small, poorly fitted or top-dose-only effect, or effect the other way, or a change in a side signal; inactive means no such curve, though single readings can be large or run the other way; the % refers to the signal ratio. Potencies of inconclusive entries are doubtful fits and often do not repeat. A note “side channel” means that the fit belongs to a control or component signal, not to the main read-out.

biological target: Muscleblind-like protein 1 (Homo sapiens) (UniProt Q9NR56); experiment: qHTS Assay for Inhibitors of MBNL1-poly(CUG) RNA binding; conditions: TR-FRET MBNL1-His/biotin-(CUG)12 binding, 665/545 ratio; activity change, negative = inhibition: at 57.5 µM (top of the series)
UniProt Q9NR56, sequence (Q9NR56 whole entry, looked up): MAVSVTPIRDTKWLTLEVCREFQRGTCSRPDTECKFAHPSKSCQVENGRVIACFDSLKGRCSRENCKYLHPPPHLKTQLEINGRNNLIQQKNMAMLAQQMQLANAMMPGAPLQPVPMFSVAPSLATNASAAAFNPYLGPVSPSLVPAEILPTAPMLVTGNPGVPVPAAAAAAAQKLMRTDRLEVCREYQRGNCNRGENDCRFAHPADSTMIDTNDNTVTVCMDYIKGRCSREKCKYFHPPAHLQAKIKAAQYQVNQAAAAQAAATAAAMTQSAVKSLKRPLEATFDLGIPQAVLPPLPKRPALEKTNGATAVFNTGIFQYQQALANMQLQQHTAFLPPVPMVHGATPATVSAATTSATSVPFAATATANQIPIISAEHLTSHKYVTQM
Summary of the method: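 Compounds (final 92 nM to 58 uM) are added to His-tagged MBNL1 and biotin-(CUG)12, then terbium anti-His antibody and streptavidin-XL665 (5 nM final). After 60 min at room temperature, the 665/545 nm ratio is read.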
On the % scale 0 is the no-effect control and ±100 the full control effect; potency means the concentration at half of the fitted maximal effect; tags describe the fitted curve by direction and shape or compound fluorescence and quenching.

SMILES | Potency | activity change, negative = inhibition
Cc1nc(Nc2ccccc2)sc1C(=O)c1ccc(F)cc1 | inconclusive: 11.2 µM [quencher, side channel, partial curve, poor fit] | –
CCOC(=O)c1c(NC(=O)c2ccccc2C)sc2c1CC(C)(C)OC2 | – | inactive: -4.21%
CCN=C(Nc1ccc2c(c1)OCO2)SC1CC(=O)N(c2ccc(OC)cc2)C1=O (stereo not drawn) | inconclusive: 8.91 µM [quencher, side channel, single point] | –
COc1cccc2[nH]c3c(Cl)ncnc3c12 | inconclusive: 2.82 µM [fluorescent, side channel, partial curve] | –
CC(=O)c1ccc(NC(=O)COC(=O)c2ccccc2Sc2ccccc2C#N)cc1 | inconclusive: 3.16 µM [fluorescent, side channel, partial curve] | –
CCN(CC(=O)Nc1cccc(C(C)=O)c1)S(=O)(=O)c1ccc(C)cc1 | – | inactive: -6.71%
O=C(O)c1cc(S(=O)(=O)NC(CO)C(O)c2ccc([N+](=O)[O-])cc2)ccc1Br (stereo not drawn) | inconclusive: 10 µM [quencher, side channel, partial curve] | –
Cn1cccc1CC(=O)N/N=C/c1cccc2ccccc12 | inconclusive: 28.2 µM [quencher, side channel, single point] | –
O=C1NC(=S)S/C1=C\c1ccc(SCc2ccco2)o1 | inconclusive: 0.158 µM [quencher, side channel, full curve, poor fit] | –
O=C(O)C(Oc1ccc2cc(-c3ccc(Cl)cc3)c(=O)oc2c1)c1ccccc1 (stereo not drawn) | – | inactive: 4.73%
COc1cc(/C=C2/C(=O)NN(c3ccc(Cl)c(Cl)c3)C2=O)cc([N+](=O)[O-])c1O | inconclusive: 28.2 µM [quencher, side channel, partial curve] | –
CN(C)CC[n+]1ccc(C(=O)c2ccccc2)cc1 | inconclusive: 7.94 µM [quencher, side channel, partial curve] | –
CS(=O)c1ccccc1COC(=O)Nc1ccc(Cl)cc1 (stereo not drawn) | inconclusive: 1.78 µM [fluorescent, side channel, partial curve] | –
Cc1cc(NC(=O)c2cc([N+](=O)[O-])cc([N+](=O)[O-])c2)n(-c2ccccc2)n1 | inconclusive: 1.78 µM [quencher, side channel, full curve] | –
O=C(CNC(=O)c1ccc(S(=O)(=O)N2CCCCC2)cc1)N/N=C/c1ccco1 | inconclusive: 28.2 µM [quencher, side channel, single point] | –
O=c1c(-n2cncn2)c[nH]n1-c1cccc(Cl)n1 | – | inactive: -5.91%
CC(C)C12CN(C(=O)c3ccccc3[N+](=O)[O-])CC(C(C)C)(CN(C(=O)c3ccccc3[N+](=O)[O-])C1)C2=O | inconclusive: 14.1 µM [quencher, side channel, partial curve, poor fit] | –
Cc1nc(N/N=C/c2ccccn2)sc1C | inconclusive: 35.5 µM [quencher, side channel, single point] | –
Cc1cc(C(=O)OCC(=O)Nc2cccc(S(N)(=O)=O)c2)c2ccccc2n1 | inconclusive: 12.6 µM [quencher, side channel, partial curve] | –

SMILES | Potency | activity change, negative = inhibition
CCCCOC(=O)c1cc(=O)[nH]c2ccc(C)cc12 | inconclusive: 0.355 µM [quencher, side channel, full curve] | –
O=[N+]([O-])c1ccc(Cl)c(-c2ccc(/C=N/n3cnnc3)o2)c1 | inconclusive: 7.94 µM [quencher, side channel, partial curve] | –
COc1cc([N+](=O)[O-])ccc1NC(=O)C[n+]1ccccc1 | inconclusive: 11.2 µM [quencher, side channel, partial curve] | –
Cc1csc(Nc2cccc3ccccc23)n1 | – | inactive: 2.53%
O=[N+]([O-])c1cc(C(F)(F)F)ccc1N1CCC(O)CC1 | inconclusive: 4.47 µM [quencher, side channel, full curve] | –
COCCNC(=S)N/N=C(\C)c1ccc(Cl)s1 | – | inactive: 11.5%
COc1cccc(C(=O)O/N=C(\N)c2ccc([N+](=O)[O-])cc2)c1 | inconclusive: 1.58 µM [quencher, side channel, full curve] | –
Cc1cc(Br)c(OCc2ccc(C(=O)N/N=C3\CC4CC=CC34)cc2)c(Br)c1 (stereo not drawn) | – | inactive: -10%
Brc1ccc2ncnc(Nc3ccc(N4CCOCC4)cc3)c2c1 | – | inactive: 3.82%
COc1ccc(OC)c(C(=O)COC(=O)CNC(=O)C2CCCCC2)c1 | inconclusive: 6.31 µM [quencher, side channel, single point] | –
Cc1ccc(NCC(=O)N=Nc2c(O)n(C)c3ccccc23)cc1 | inconclusive: 5.01 µM [quencher, side channel, partial curve] | –
COc1ccc(-c2nnc3sc(CCN4C(=O)c5ccccc5C4=O)nn23)cc1 | inconclusive: 20 µM [quencher, side channel, single point] | –
O=[N+]([O-])c1cccnc1N1CCOCC1 | inconclusive: 35.5 µM [quencher, side channel, single point] | –
Cc1cc(NC(=O)Cc2ccccc2)nc2c1c(=O)oc1ccccc12 | inconclusive: 39.8 µM [quencher, side channel, single point] | –
COc1ccc2cc3cc(C(=O)NCCN4CCN(Cc5ccccc5)CC4)oc3nc2c1 | inconclusive: 2.24 µM [quencher, side channel, full curve, poor fit] | –
COc1ccccc1N1CCN(Cc2nc(N)nc(Nc3ccc(C)cc3)n2)CC1 | inconclusive: 7.08 µM [quencher, side channel, single point] | –
COc1ccc(Cc2nnc(SCc3nc4ccccc4c(=O)[nH]3)o2)cc1 | inconclusive: 4.47 µM [quencher, side channel, single point] | –
Cc1ccccc1NC(=O)c1c(C)[nH]c(=S)c(C#N)c1-c1ccco1 | – | inactive: 32.2%
COc1ccc(CCN(C)CCC(=O)Nc2ccc(C)cc2)cc1OC | inconclusive: 1 µM [fluorescent, side channel, partial curve, poor fit] | –
